Cytotoxicity call data for 29 compounds are collected here from the antibiotic and cytotoxicity screens of Wong et al. (2023).

This is one part of the list.

The assay deals with HepG2. Kind of assay: cytotoxicity call (relative viability < 0.9). The following applies: 10 µM.
`C[C@H](CO)N1C[C@H](C)[C@H](CN(C)Cc2ccc(Oc3ccccc3)cc2)Oc2c(NC(=O)Nc3ccc4c(c3)OCO4)cccc2C1=O`: the cytotoxicity call was “active”. As to `C[C@@H]1CCCCO[C@@H](CN(C)Cc2ccncc2)[C@H](C)CN([C@@H](C)CO)C(=O)c2cc(NC(=O)Nc3ccc(C(F)(F)F)cc3)ccc2O1`, the cytotoxicity call is “inactive”. As for `C[C@H](CO)N1C[C@H](C)[C@@H](CN(C)S(=O)(=O)c2cccs2)Oc2ccc(NC(=O)Cc3ccccc3)cc2CC1=O`, the cytotoxicity call is “inactive”. With `C=C(C)C1CCC2(C)CCC3(C)C(CCC4C5(C)CCC(OC(C)=O)C(C)(C)C5CCC43C)C12` (centres undefined) the entry was “inactive”; with `C[C@H]1CCCCO[C@H](CN(C)S(=O)(=O)c2ccc(F)cc2)[C@@H](C)CN([C@@H](C)CO)C(=O)c2cc(NC(=O)Nc3ccc4c(c3)OCO4)ccc2O1`, “inactive”. The value for `C[C@@H]1CN([C@@H](C)CO)C(=O)c2cc(NC(=O)Nc3cccc4ccccc34)ccc2O[C@@H](C)CCCCO[C@H]1CN(C)C(=O)C1CCCCC1` was “inactive”; that for `C[C@@H]1CCCCO[C@@H](CN(C)Cc2ccccc2)[C@@H](C)CN([C@@H](C)CO)C(=O)c2cc(NS(=O)(=O)c3ccccc3)ccc2O1` was “active”; that for `C[C@H](CO)N1C[C@H](C)[C@@H](CN(C)Cc2ccc(-c3ccccc3)cc2)Oc2ccc(NC(=O)NC3CCCCC3)cc2CC1=O` was “inactive”.

In the case of `Cc1ccc(S(=O)(=O)N(C)C[C@@H]2Oc3ncc(C#CC4(O)CCCC4)cc3C(=O)N([C@@H](C)CO)C[C@H]2C)cc1`, the cytotoxicity call is “inactive”. With `CCN(CC)CCc1nc(-c2ccccc2)no1.O=C(O)CC(O)(CC(=O)O)C(=O)O` the entry was “active”. On to `COC1C(O)CC(=O)OC(C)CC=CC=CC(OC2CCC(N(C)C)C(C)O2)C(C)CC(CC=O)C1OC1OC(C)C(OC2CC(C)(O)C(O)C(C)O2)C(N(C)C)C1O` (centres undefined), for which the cytotoxicity call is “active”. With `Cc1cc(-c2ccc(NN=C3C=Cc4c(S(=O)(=O)O)cc(S(=O)(=O)O)c(N)c4C3=O)c(C)c2)ccc1NN=C1C=Cc2c(S(=O)(=O)O)cc(S(=O)(=O)O)c(N)c2C1=O` the entry was “active”; with `CCn1nnnc1NCc1cccn1C`, “inactive”; with `C[C@H](CO)N1C[C@H](C)[C@@H](CN(C)Cc2ccc(-c3ccccc3)cc2)Oc2ccc(NC(=O)C3CCCCC3)cc2C1=O`, “inactive”.

Take `C[C@@H]1CN([C@@H](C)CO)C(=O)c2cc(NC(=O)CCCCCC(=O)Nc3ccccc3N)ccc2O[C@@H]1CN(C)S(=O)(=O)c1cn(C)cn1`: the cytotoxicity call is “inactive”. The value for `C[C@@H]1CN([C@@H](C)CO)C(=O)c2cccc(NC(=O)Nc3ccc(C(F)(F)F)cc3)c2O[C@@H]1CN(C)Cc1ccc(Oc2ccccc2)cc1` was “active”; that for `C[C@@H]1CCCCO[C@H](CN(C)C(=O)Nc2ccc(C(F)(F)F)cc2)[C@H](C)CN([C@H](C)CO)C(=O)c2cc(NC(=O)Nc3cccc4ccccc34)ccc2O1` was “inactive”; that for `O=C(C[C@H]1CC[C@@H]2[C@H](COC[C@@H](O)CN2S(=O)(=O)c2ccccc2)O1)N[C@H]1CCN(Cc2ccccc2)C1` was “inactive”.

`O=C1C=C2CC3(O)COc4c(ccc(O)c4O)C3=C2C=C1O` (centres undefined): the cytotoxicity call was “inactive”.

With `NCC(=O)O`, the cytotoxicity call was “inactive”.

Turning to `O=C(C[C@H]1C=C[C@@H](NC(=O)c2cccc(F)c2)[C@H](CO)O1)NCCN1CCCC1`, the cytotoxicity call was “inactive”. As to `CC(C)(C)OC(=O)NC(=NCCn1cc(-c2cccc(/C=C/C(=O)NO)c2)nn1)NC(=O)OC(C)(C)C`, the cytotoxicity call was “inactive”.

On to `C[C@@H]1CN([C@@H](C)CO)C(=O)c2cc(NC(=O)NC3CCCCC3)ccc2O[C@@H](C)CCCCO[C@H]1CN(C)C(=O)Nc1ccc2c(c1)OCO2`, for which the cytotoxicity call was “active”. On to `CC(C)NC(=O)N(C)C[C@@H]1Oc2ccc(NS(=O)(=O)c3cn(C)cn3)cc2CC(=O)N([C@H](C)CO)C[C@H]1C`, for which the cytotoxicity call is “inactive”. With `COc1cccc(NC(=O)N[C@H]2C=C[C@@H](CC(=O)N3CCOCC3)O[C@H]2CO)c1` the entry was “inactive”; with `CCCCCCCCCCCC(=O)OCN1C(=O)CCc2ccc(OCCCCN3CCN(c4cccc(Cl)c4Cl)CC3)cc21`, “inactive”; with `C[C@H]1CCCCO[C@@H](CN(C)C(=O)Nc2ccccc2)[C@@H](C)CN([C@@H](C)CO)C(=O)c2cc(NC(=O)Nc3ccc(C(F)(F)F)cc3)ccc2O1`, “inactive”. With `CC(C)C#Cc1ccc2c(c1)O[C@@H](CN(C)C(=O)c1cccc(F)c1)[C@H](C)CN([C@H](C)CO)S2(=O)=O` the entry was “inactive”; with `COc1cc(CO)cc(I)c1O[C@H]1C=C(C(=O)NCCO)C[C@@H](NC2CCCCCC2)[C@@H]1O`, “active”.
